Reference: PubChem BioAssay AID2060912 (Molecular Pharmacology Branch, DTP, NCI, 2025)
The source holds more than one record for some entries. The other results are left out here. There may be further records. Values that stand side by side repeat one measurement (runs, samples, wells, individuals or studies). Brackets with × count equal records among those shown.

Test system: HUVEC/MSC spheroids viability
Assay: Human HUVEC/MSC cell line growth inhibition [KRAS2];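 note: percent of DMSO vehicle control luminescence so 100% = untreated viability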
Details: stronger effect = lower value
Text: Multicellular complex tumor spheroid response to RAS pathway inhibitors in combination with a targeted agents in patient-derived cell lines with oncogenic KRAS variants from multiple cancer types
A high-throughput screen of multi-cell type tumor spheroids was designed to identify active combinations of targeted small molecules and KRAS pathway inhibitors. Complex spheroids include a stromal component modeled by human endothelial cells (HUVEC) and fibroblasts modeled by human mesenchymal stem cells (MSCs). The concentration ranges selected for each drug and investigational agent were based upon clinically achievable concentrations if the clinical Cmax of the agent was known. * [This particular assayID is a followup dataset requested by reviewers of the manuscript. It is a test of the HUVEC and MSC without the tumor cells, and was conducted using different drug plates and a different plate layout.]
Compounds. The drugs and investigational agents: BI-3406 (NSC825286), BAY-293 (NSC824723), batoprotafib (TNO155; NSC825523), sotorasib (AMG 510; NSC818433), MRTX1257 (NSC819558), elimusertib (BAY 1895344; NSC800525), molibresib (GSK525762; NSC774829), temuterkib (LY3214996; NSC803410), venetoclax (NSC766270), alisertib (NSC759677), olaparib (NSC753686), talazoparib (NSC767125), erdafitinib (NSC781556), ipatasertib (NSC767898), cabozantinib (NSC761068), nintedanib (NSC756659), abemaciclib (NSC768073), docetaxel (NSC628503), trametinib (NSC758246), and sapanisertib (NSC764658) were obtained from the National Cancer Institute (NCI) Developmental Therapeutics Program Chemical Repository. The FDA-approved anticancer drug set is available from the Developmental Therapeutics Program. […] The stock solutions were prepared in dimethyl sulfoxide (DMSO, Sigma-Aldrich, St. Louis, MO, cat. D2650) at 800-fold the tested concentration and stored at -70 degrees C prior to their use. All drugs and investigational agents were tested over a range starting from a high concentration at or near the clinical Cmax and decreasing in half-log increments. If the clinical Cmax for an agent had not been determined, the highest concentration tested was 10 microM.
Cell Culture. All cells were maintained in an incubator at 37 degrees C and 5% CO2 with 95% humidity. The PDC lines were cultured according to standard operating procedures established by the NCI PDMR (https://pdmr.cancer.gov/sops/default.htm). Briefly, all PDCs were thawed and cultured in Matrigel-coated flasks prepared with a working solution of 1X Ham's F-12 nutrient mix, without supplementation (Invitrogen, Waltham, MA, cat. 11765054), 100 U/mL penicillin-streptomycin (Invitrogen, cat. 15140122), and 2.5% Matrigel (Corning Inc., Corning, NY, cat. 354248) for the first three passages. All PDCs were cultured in complete DMEM/F-12 media containing advanced DMEM/F-12 (Invitrogen, cat. 12634028), 4.9% defined fetal bovine serum, heat inactivated (HyClone Laboratories Inc., Logan, UT, cat. SH30070.03HI), 389 ng/mL hydrocortisone (Sigma-Aldrich, cat. H4001), 9.7 ng/mL human EGF recombinant protein (Invitrogen, cat. PHG0313), 23.4 microg/mL adenine (Sigma-Aldrich, cat. A2786), 97.3 U/mL penicillin-streptomycin (Invitrogen, cat. 15140122), 1.9 mM L-glutamine (Invitrogen, cat. 25030081), and 9.7 microM Y-27632 dihydrochloride (Tocris Bioscience, Bristol, United Kingdom, cat. 1254). The PDCs were cultured in complete DMEM/F12 media without 9.7 microM Y-27632 dihydrochloride for at least two passages prior to the screen. The established cell line HOP-62 was cultured in RPMI 1640 medium, HEPES (Invitrogen, cat. 22400105) with 10% defined fetal bovine serum (HyClone Laboratories Inc., cat. SH30070.03) and 2 mM L-glutamine (Invitrogen, cat. 25030081). The pooled donor HUVEC were cultured in endothelial cell growth medium 2 (PromoCell, Heidelberg, Germany, cat. C-22011) and the hMSC were cultured in mesenchymal stem cell growth medium 2 (PromoCell, cat. C-28009). […]

Structure (SMILES)	viability, T/C (compound alone 0.1 µM)	viability, T/C (compound alone 1 µM)	viability, T/C (compound alone 3.16 µM)	further results
C=CC(=O)N1CCN(c2nc(OCC3CCCN3C)nc3c2CCN(c2cccc4cccc(C)c24)C3)CC1CC#N (stereo not drawn)	–	–	–	viability, T/C (compound alone 0.00949 µM): 76.2, 86.3, 90, 82.5, 106, 99.9, 81.6, 110, 79.6%; viability, T/C (compound alone 0.0949 µM): 80.3, 87.1, 95.8, 87.6, 109, 89.5, 93.2, 97.6, 88.5%; viability, T/C (compound alone 0.3 µM): 67.1, 84.5, 83.1, 94.8, 92.3, 81, 69.9, 88, 70.5%
CC(=O)Nc1cccc(-n2c(=O)n(C3CC3)c(=O)c3c(Nc4ccc(I)cc4F)n(C)c(=O)c(C)c32)c1	–	–	–	viability, T/C (compound alone 0.0003 µM): 111, 130 (2×), 124, 144%; viability, T/C (compound alone 0.003 µM): 105, 125, 109 (2×), 89%
Cn1nccc1Nc1nccc(-c2cc3c(s2)C(C)(C)N(CCN2CCOCC2)C3=O)n1	–	–	–	viability, T/C (compound alone 0.316 µM): 110, 104, 127, 132, 103%
CNCc1ccccc1-c1csc(C(C)Nc2nc(C)nc3cc(OC)c(OC)cc23)c1 (stereo not drawn)	94.3 (2×), 78.3, 86.8, 76.9, 99.2, 102, 96.1, 91.7%	96, 76.2, 80.5, 68.4, 85.5, 81.3, 84.7, 69.6, 110%	97.7, 74.2, 91.6, 73.6, 97.6, 97.5, 89.2, 89.5, 108%	–
CN(C)C/C=C/C(=O)Nc1cc2c(Nc3ccc(F)c(Cl)c3)ncnc2cc1O[C@H]1CCOC1	87.9, 74.1, 83.6, 103, 97%	–	–	viability, T/C (compound alone 0.01 µM): 81.7, 106, 85.5, 91.7, 77.8%
CC1OCC2(CCN(c3cnc(Sc4ccnc(N)c4Cl)c(N)n3)CC2)C1N (stereo not drawn)	100, 105, 108, 103, 90.4, 94.6, 97.9, 102, 83.9, 90.1, 101, 154, 119, 110%	83.6, 101, 89.4, 88.5, 103, 98.5, 98.2, 109, 84.9, 89.9, 114, 122, 81.5, 85.5%	84.6, 83.6, 89.2, 89.1, 86.2, 84.9, 91.5, 89.8, 87, 83.4, 97.4, 115, 65.4, 76.6%	viability, T/C (compound alone 0.0316 µM): 91.5, 109, 99.1, 102, 95.3, 107, 92.4, 105, 91.2, 94.7, 115, 123, 92.1, 108%; viability, T/C (compound alone 0.316 µM): 89.5, 131, 117, 102, 104, 110, 112, 115, 99.1, 95.5, 84.7, 114, 107, 103%; viability, T/C (compound alone 10 µM): 67, 75.1 (2×), 72.5, 66.1, 78.8, 93.6, 82.2, 66.7, 58.9, 79.3, 122, 62.5, 64%
COc1cc2nc(C)nc(NC(C)c3cc(N)cc(C(F)(F)F)c3)c2cc1OC1CCOC1 (stereo not drawn)	83.3, 98.8, 92.6, 111, 95.3, 97, 95.8, 80.4%	84.1, 103, 99.9, 119, 84.8, 81.9, 76.1, 110, 72.8%	92.5, 78.3, 92.7, 102, 72.2, 72.8, 86.8, 95.2, 81.5%	–
O=C(c1cc(Cc2n[nH]c(=O)c3ccccc23)ccc1F)N1CCN(C(=O)C2CC2)CC1	111, 87.1, 77.1, 99.3, 87.3%	–	102, 85.7, 86.8, 90.3, 76.8%	viability, T/C (compound alone 0.0316 µM): 86.9, 89.2, 95.3, 112, 100%
